The supplement of paper PMC10670038
Counter-ions that a name gives are not always drawn. ± gives the standard deviation of the averaged measurements. In all, about 2,000 compounds were measured (“relative cell viability vs DMSO, compound + 0.2 uM CuET”: median about 1, lowest 2% from about 0.25 on). The list shows a part of the results.

tested on: TE10; test: relative cell viability vs DMSO, compound + 0.2 uM CuET (fraction); TE10 is an esophageal squamous carcinoma line; higher = less cytotoxic; conditions: 2 µM; co-treatment: CuET (bis(diethyldithiocarbamate)copper) 0.2 uM; 48 h
Protocol: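 TE10 ESCC cells (1,000/well, 384-well plates) were treated with Selleck bioactive library compounds at 2 uM combined with 0.2 uM CuET (copper diethyldithiocarbamate) for 48 h. Viability was read by CellTiter-Glo and expressed relative to DMSO wells. Two technical replicates (A, B).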

| SMILES | relative cell viability |
| --- | --- |
| COc1cc(/C=C/C(=O)CC(=O)/C=C/c2ccc(O)c(OC)c2)ccc1O [Curcumin] | 0.656 ± 0.023 |
| Cc1cc(O)c2c(c1)C(=O)c1cc(O)cc(O)c1C2=O [Emodin] | 0.953 ± 0.1 |
| O=C1NC(=O)/C(=C/c2cccc(C(F)(F)F)c2)S1 | 1.3157 ± 0.0003 |
| Cn1cc(-c2ccc3nnc(Sc4ccc5ncccc5c4)n3n2)cn1 | 1.02 ± 0.038 |
| Clc1ccc(Nc2nnc(Cc3ccncc3)c3ccccc23)cc1 [Vatalanib (PTK787) 2HCl] | 1.08 ± 0.044 |
| COC(=O)c1ccc2c(C(=Nc3ccc(N(C)C(=O)CN4CCN(C)CC4)cc3)c3ccccc3)c(O)[nH]c2c1 [Nintedanib (BIBF 1120)] | 1.08 ± 0.085 |
| CCOC(=O)[C@H](CCc1ccccc1)N[C@@H](C)C(=O)N1Cc2cc(OC)c(OC)cc2C[C@H]1C(=O)O [Moexipril HCl] | 1.05 ± 0.13 |
| O=c1[nH]cnc2[nH]ncc12 [Allopurinol Sodium] | 0.947 ± 0.016 |
| C[N+](C)(C)CCO.[Cl-] [Choline Chloride] | 1.17 ± 0.17 |
| CN1CCN(C2CCN(C(=O)Nc3cc(Oc4ccc(NC(=O)C5(C(=O)Nc6ccc(F)cc6)CC5)c(F)c4)ccn3)CC2)CC1 [Golvatinib (E7050)] | 1.22 ± 0.24 |
| C[C@H]1COc2c(N3CCN(C)CC3)c(F)cc3c(=O)c(C(=O)O)cn1c23 [Levofloxacin] | 1.048 ± 0.0098 |
| NC(CO)C(=O)NNCc1ccc(O)c(O)c1O (centres undefined) [Benserazide HCl] | 0.987 ± 0.032 |
| CCCC(=O)OCOC(=O)C1=C(C)NC(C)=C(C(=O)OC)C1c1cccc(Cl)c1Cl (centres undefined) [Clevidipine Butyrate] | 0.966 ± 0.05 |
| CN1CCN(c2ccc(OC(F)(F)F)c(Nc3ncc4c(n3)-c3c(c(C(N)=O)nn3CCO)CC4)c2)CC1 | 0.9685 ± 0.0073 |
| CN(C/C=C/C#CC(C)(C)C)Cc1cccc2ccccc12 [Terbinafine HCl] | 1.1 ± 0.093 |
| CN(C/C=C/C#CC(C)(C)C)Cc1cccc2ccccc12 [Terbinafine] | 1.09 ± 0.026 |
| Nc1nc(O)c2ncn(CCC(CO)CO)c2n1 [Penciclovir] | 1.05 ± 0.13 |
| Fc1ccc([C@@H]2CCNC[C@H]2COc2ccc3c(c2)OCO3)cc1 [Paroxetine HCl] | 0.487 ± 0.45 |
| O=C(/C=C/N1C[C@H]2C[C@@H]1CN2c1ccccn1)c1ccccc1O | 1.13 ± 0.2 |
| O=C(O)CCCC[C@@H]1SC[C@@H]2NC(=O)N[C@@H]21 [Biotin (Vitamin B7)] | 1.06 ± 0.16 |

| SMILES | relative cell viability |
| --- | --- |
| CCOC(=O)Nc1ccc(NCc2ccc(F)cc2)nc1N [Flupirtine maleate] | 1.14 ± 0.014 |
| COC(=O)C1=C(C)NC(C)=C(C(=O)OC(C)C)C1c1cccc2nonc12 (centres undefined) [Isradipine] | 1.04 ± 0.072 |
| O=C(NO)c1ccc(CC(=O)N(CCO)c2ccccc2)cc1 | 1.056 ± 0.0057 |
| Cn1c(Nc2ccc(C(F)(F)F)cc2)nc2cc(Oc3ccnc(-c4ncc(C(F)(F)F)[nH]4)c3)ccc21 | 0.847 ± 0.035 |
| C[C@H](CCC(=O)O)[C@H]1CC[C@H]2[C@@H]3CC[C@@H]4C[C@H](O)CC[C@]4(C)[C@H]3CC[C@]12C [Lithocholic acid] | 1.1 ± 0.0019 |
| CC(=O)SCC(Cc1ccccc1)C(=O)NCC(=O)OCc1ccccc1 (centres undefined) [Racecadotril] | 1.07 ± 0.017 |
| OCCN1C[C@H](O)[C@@H](O)[C@H](O)[C@H]1CO [Miglitol] | 1.11 ± 0.077 |
| CC(C)(O)C1CCC(C)(C2C(O)CC3(C)C4CC(OC5OC(CO)C(O)C(O)C5O)C5C(C)(C)C(OC6OCC(O)C(O)C6O)CCC56CC46CCC23C)O1 (centres undefined) [Astragaloside A] | 1.15 ± 0.069 |
| S=C(NCc1ccc2c(c1)OCO2)N1CCN(c2ncnc3c2oc2ccccc23)CC1 [Amuvatinib (MP-470)] | 0.943 ± 0.34 |
| CC1(C)CCC2=C(O1)c1ccccc1C(=O)C2=O [Beta-Lapachone] | 0.246 ± 0.051 |
| CC(=O)OCC[N+](C)(C)C [Acetylcholine Chloride] | 1.003 ± 0.0059 |
| CN(C)[C@@H]1C(=O)C(C(N)=O)=C(O)[C@@]2(O)C(=O)C3=C(O)c4c(O)ccc(Cl)c4[C@@H](O)[C@H]3C[C@@H]12 [Demeclocycline HCl] | 1.18 ± 0.04 |
| Cn1cnc([N+](=O)[O-])c1Sc1ncnc2[nH]cnc12 [Azathioprine] | 1.08 ± 0.07 |
| CC(=O)Oc1cc2c(s1)CCN(C(C(=O)C1CC1)c1ccccc1F)C2 (centres undefined) [Prasugrel] | 1.33 ± 0.14 |
| CC(C)C(=O)Nc1ccc([N+](=O)[O-])c(C(F)(F)F)c1 [Flutamide] | 1.05 ± 0.082 |
| COc1nc(N)nc2c1ncn2[C@@H]1O[C@H](CO)[C@@H](O)[C@@H]1O [Nelarabine] | 1.21 ± 0.043 |
| CN(C)CCCn1cc(C2=C(c3c[nH]c4ccccc34)C(=O)NC2=O)c2ccccc21 | 1.13 ± 0.18 |
| O=C(Nc1cccc(Nc2ncc(Br)c(NCCc3cnc[nH]3)n2)c1)N1CCCC1 | 1.14 ± 0.11 |
| COc1ccccc1N1CCN(CCCNc2cc(=O)n(C)c(=O)n2C)CC1 [Urapidil HCl] | 1.01 ± 0.037 |
